According to the supplement of paper PMC3334620:
The full ranking holds about 33,000 sequences; the median of “E-score (-0.5 to 0.5)” is about -0.035, and the highest 2% start at about 0.35. This is one part of the list.

Target: T1, Pdr3 (UniProt P33200)
T1 sequence: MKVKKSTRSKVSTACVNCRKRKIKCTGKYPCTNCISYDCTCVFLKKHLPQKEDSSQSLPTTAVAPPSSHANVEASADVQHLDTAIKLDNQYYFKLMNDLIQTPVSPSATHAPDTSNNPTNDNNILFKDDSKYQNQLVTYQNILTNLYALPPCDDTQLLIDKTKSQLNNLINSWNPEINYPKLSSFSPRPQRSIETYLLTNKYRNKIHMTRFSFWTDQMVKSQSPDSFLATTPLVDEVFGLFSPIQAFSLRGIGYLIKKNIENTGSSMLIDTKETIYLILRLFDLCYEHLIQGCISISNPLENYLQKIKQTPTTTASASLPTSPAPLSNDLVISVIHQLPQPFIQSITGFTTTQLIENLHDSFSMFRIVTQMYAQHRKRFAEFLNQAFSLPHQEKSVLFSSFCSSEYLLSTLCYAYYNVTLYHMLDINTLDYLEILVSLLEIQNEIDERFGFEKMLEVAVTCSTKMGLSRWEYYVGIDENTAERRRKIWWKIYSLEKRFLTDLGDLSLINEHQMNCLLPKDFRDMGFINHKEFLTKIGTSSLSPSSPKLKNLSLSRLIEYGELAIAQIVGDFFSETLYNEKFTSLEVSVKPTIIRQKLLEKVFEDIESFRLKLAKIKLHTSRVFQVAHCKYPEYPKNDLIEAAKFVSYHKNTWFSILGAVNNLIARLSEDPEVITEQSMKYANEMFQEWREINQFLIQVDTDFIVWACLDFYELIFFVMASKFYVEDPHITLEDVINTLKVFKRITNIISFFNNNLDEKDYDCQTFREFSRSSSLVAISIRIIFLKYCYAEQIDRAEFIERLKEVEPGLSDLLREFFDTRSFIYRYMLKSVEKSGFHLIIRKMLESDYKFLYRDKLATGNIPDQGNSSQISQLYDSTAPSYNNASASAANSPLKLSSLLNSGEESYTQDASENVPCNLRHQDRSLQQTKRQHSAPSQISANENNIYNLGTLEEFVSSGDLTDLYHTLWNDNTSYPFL
Assay: PBM E-score (8-mer binding enrichment) (E-score (-0.5 to 0.5)); higher = stronger / more preferred TF binding; most listed sequences are background and not binding sites
Conditions: protein concentration: 200 nM; construct: GST-full length
In short: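 Universal all-10-mer Agilent arrays, fresh or stripped once, were converted to double-stranded form by primer extension. GST-tagged yeast transcription factors from PURExpress in vitro transcription/translation, full-length or DNA-binding domain only, were applied at about 100-200 nM and detected with fluorescent anti-GST. After masliner normalisation, the Universal PBM Analysis Suite scored each ungapped eight-base word together with its reverse complement by E-score.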

| Sequence | PBM E-score |
| --- | --- |
| GCTGTAAC | -0.00561 |
| AAAGATAC | 0.0747 |
| GTGCATAA | -0.0206 |
| GTGGTCCA | 0.0417 |
| ACCAAACT | -0.00703 |
| ACCATGAA | 0.12 |
| AGTTGGCC | -0.151 |
| GCTTCCAC | -0.139 |
| ATGCCAGA | -0.0896 |
| CGGGCGCC | 0.197 |
| AATTGAGG | 0.00764 |
| AAGATCCT | -0.0701 |
| GCCCAAGA | -0.176 |
| ATATATCA | 0.00415 |
| GATCTCCC | 0.0107 |
| ACAACAAT | -0.119 |
| ATGCAGTC | -0.256 |
| CACCCGAG | 0.204 |
| ACTTGGCT | -0.127 |
| AGCTATTC | 0.0679 |
| GGCGCTCA | 0.0784 |
| CTAACAGA | -0.028 |
| AGCGACTC | -0.145 |
| GTGGTGTA | -0.221 |
| GCTAGTCA | -0.246 |

| Sequence | PBM E-score |
| --- | --- |
| GGTGAAAA | 0.2 |
| CGCAGAGA | -0.112 |
| AATAAATA | 0.273 |
| AGCTCCTG | -0.187 |
| AATAAAGG | -0.266 |
| TGAGTTAA | -0.0516 |
| CCCAAGAG | -0.214 |
| AGGGCACC | -0.172 |
| AGAAGCCG | 0.213 |
| CATCAAGA | -0.0896 |
| AACGTAAC | -0.0882 |
| AAAAGTCT | -0.253 |
| TGAATACA | 0.0291 |
| CAAAATAG | -0.109 |
| AGCGACAG | -0.03 |
| AGCATGGA | -0.2 |
| GTACAATA | -0.153 |
| TACGGCGA | 0.0344 |
| AGAGCATC | -0.0714 |
| GGCGGCGA | 0.243 |
| CCGAGTAC | 0.256 |
| CCTATAAC | -0.288 |
| AAGTCGTA | -0.323 |
| ATATATCG | 0.124 |
| ACTCCCTG | -0.15 |

| Sequence | PBM E-score |
| --- | --- |
| GGGGGCAA | -0.234 |
| CAGACCTC | -0.0492 |
| CAGGGCAA | 0.0442 |
| AGTCAACA | -0.103 |
| AGGGTGAC | 0.0577 |
| GACCTTAA | -0.249 |
| CTATATCC | 0.107 |
| ATATCCTC | 0.0851 |
| CGACATTC | 0.039 |
| AGAGTACT | -0.173 |
| CAACTTGG | -0.0197 |
| AGGGTGAG | -0.0933 |
| CCATGACA | -0.101 |
| CTGCTGGA | -0.176 |
| ACCTATTA | -0.0773 |
| ATAAACTC | 0.225 |
| CAGTATCG | 0.116 |
| ACAAGCCA | -0.107 |
| ATTCATAA | -0.123 |
| CCGCACAG | 0.0967 |
| CGGCAAGC | 0.153 |
| CCCTGGCG | -0.101 |
| CTCGTGCC | -0.0174 |
| AGGCAATG | -0.115 |
| CCCCCTGC | -0.16 |

| Sequence | PBM E-score |
| --- | --- |
| AGTCCTGC | -0.0695 |
| CTGAGCAC | -0.169 |
| GCAGACGC | -0.0419 |
| AAGGGGTC | -0.189 |
| GAGGTACA | -0.133 |
| GCCTCCCC | -0.0413 |
| CTCGTCGA | -0.0424 |
| AACTGAAT | -0.181 |
| CTATTCGC | -0.0138 |
| GTAATCAA | 0.0934 |
| AACTATCT | 0.00109 |
| CAAGCAAC | -0.0453 |
| ACCGAAGA | 0.112 |
| CTCGGCAA | 0.194 |
| AATTCTAG | -0.188 |
| ATTGGCTA | -0.117 |
| GTAACGTA | -0.165 |
| CTTTATCC | 0.0779 |
| AGTTTAGA | 0.00108 |
| AAACACGT | -0.207 |
| CCTATAAG | -0.115 |
| AGGTGGAA | 0.0633 |
| ACAAGTCG | -0.222 |
| ACAGATCC | 0.265 |
| AATCAATT | 0.2 |

| Sequence | PBM E-score |
| --- | --- |
| AGGATACC | 0.043 |
| AGGCACTA | -0.111 |
| ATACGTCC | 0.051 |
| AGCTAGCG | -0.0532 |
| CATTTCTA | -0.0363 |
| AGAGTTGA | -0.00429 |
| AGATTTCG | 0.155 |
| TGTACCAA | -0.125 |
| ACCGGCCG | 0.35 |
| GAACCCAC | 0.159 |
| GACGGGAA | 0.203 |
| GAAGTCCC | 0.0249 |
| ATGATACG | 0.0414 |
| CTCTGGCC | 0.00278 |
| GTGACCAA | -0.0611 |
| GCGGTACC | 0.219 |
| GTCGTGAA | -0.31 |
| TGCCAGCA | -0.118 |
| TCACAGCA | -0.00302 |
| GAATTAGC | 0.0936 |
| GAGATCAC | 0.0419 |
| AAAGTAAT | 0.185 |
| AGAAGTAC | -0.217 |
| TGCGCAAA | 0.0675 |
| AACACACA | -0.0615 |

| Sequence | PBM E-score |
| --- | --- |
| AACGGCGG | 0.183 |
| CAACAGGG | 0.00221 |
| AGCGACCG | 0.0621 |
| ACCTCCGC | 0.287 |
| CAGACCAA | -0.117 |
| CAAGGTTA | -0.0279 |
| AATAATTG | -0.0342 |
| CAAGCACA | -0.271 |
| CTTGTTCA | -0.141 |
| ATAACGAA | 0.159 |
| CCGTACGG | 0.154 |
| ACAGTGGG | -0.185 |
| AAAGTATA | -0.077 |
| CATGCCCG | 0.234 |
| GCAAAATA | 0.0209 |
| GCAATAGC | 0.12 |
| CGCAATGA | -0.0375 |
| ATCAGTAA | 0.0366 |
| CTTCTTCA | -0.179 |
| GGTCGACC | 0.38 |
| AGAATAAA | 0.0145 |
| ACAGAGTG | -0.182 |
| AATGATAT | 0.0572 |
| GTGCCTAA | -0.288 |
| GACGGCTA | -0.0347 |

| Sequence | PBM E-score |
| --- | --- |
| AGGGACAT | 0.14 |
| TAAGAATA | -0.213 |
| ATGCGTCG | -0.0223 |
| CAGTAAAA | -0.0121 |
| ATCGTGAA | -0.0202 |
| ACGGTATC | 0.167 |
| CCGATAGA | 0.179 |
| CCTTTAGA | -0.22 |
| CAACAACG | -0.148 |
| CATCATAA | -0.0649 |
| AACGGCCC | -0.0218 |
| CCAGAAAA | -0.034 |
| CTAATGAC | -0.398 |
| CCGTGGTA | 0.174 |
| ACTTTTAT | -0.258 |
| AATAAGAT | -0.0958 |
| TGGGTACA | -0.0985 |
| TAGCGTGA | -0.257 |
| ATCATTTG | 0.165 |
| GGGTAATA | 0.144 |
| CGATACGA | -0.107 |
| CAGCAAAC | 0.00115 |
| CCCTACTA | -0.155 |
| GATATGTA | -0.047 |
| CATTGAAG | -0.15 |

| Sequence | PBM E-score |
| --- | --- |
| TTAGCGAA | 0.0125 |
| CGGCTCGC | 0.253 |
| CAATTCCA | 0.0797 |
| CGTTATGC | -0.156 |
| CTTACTGA | -0.202 |
| ATCTACAC | -0.105 |
| CCCGATAG | 0.0396 |
| ACTTTGTA | -0.099 |
| CGGCCTAC | 0.158 |
| GAAGTAGA | -0.00101 |
| ACAAGCAT | -0.0569 |
| ATGCTGAC | -0.148 |
| CGATGCTC | 0.0562 |
| TCACTGCA | -0.0283 |
| TAAACGGA | 0.366 |
| AGCCACAG | -0.217 |
| CCCCTACC | -0.106 |
| ACAAAAAG | -0.034 |
| CAATATAG | -0.0133 |
| CTGCACTA | 0.0614 |
| AGGCATAA | -0.232 |
| GTGCACAA | 0.00448 |
| ATTGTCTG | 0.00421 |
| ATGGTCGG | 0.128 |
| AGTACCGC | 0.12 |

| Sequence | PBM E-score |
| --- | --- |
| CAGAAAGC | -0.162 |
| AAGTCCGT | 0.209 |
| GGTTTAAA | -0.117 |
| ACGTCGAA | -0.0501 |
| CCGACCAC | 0.127 |
| ACTAGGAC | -0.139 |
| AACTCTGA | 0.192 |
| AGATCTTG | -0.148 |
| AACCAGAA | -0.0275 |
| GAAAGTGA | -0.0428 |
| CTGAATTA | 0.0139 |
| CTGCTAGC | -0.305 |
| AAATTACT | -0.0488 |
| AGCGCAAT | -0.00628 |
| AGATGACT | -0.182 |
| AGGCCTCG | -0.0112 |
| AATATTCG | 0.0118 |
| GCAAACGC | 0.166 |
| CCCTACCC | -0.0539 |
